For 56 variants, self-cleavage results are on record in the RNAGym collection of RNA variant scans (doi:10.7554/elife.90254).

To fix the notation:
B1: LINE1-mini (parent)
chain: GGCAGAGCUCAACACAGCGUGGCAAAGUGGCUGUGGCUAGACUGCC

Read counts are not given, so values of variants with three or more changes are uncertain.

Variants of B1 are the subject of the data set. Kind of data set: self-cleavage, relative activity (ratio to wild type); higher = more cleavage; in vitro, sequencing; the parent is a self-cleaving ribozyme.
With GGGAGAGCUCAACAUAGCUAGGCGAAGUGGCUGUGGCUAGACUGCC, the self-cleavage stood at 0.54.

Regarding GGGAGAGCUCAACAUAGCGUGGCAUAGUACUUGUGGCUAGACUGCC, the self-cleavage was determined as 0.36. In the case of GGGACAGCUCAACCCAGCAUGGGAAAGUGGCUGUGGCCAGACUGCC, the self-cleavage turned out to be 0.02. As to GGGAGAGCUCAACACAGAGAGGCGAAGUGGCUGUGGCUAGACUGCC, the self-cleavage was found to be 0.02. Turning to GGGAGAGCUCAACAUAGCUUGGCAAAGUGGCUGUGGCUAGACUGCC, the self-cleavage is 0.07. As for GGGAGAGCUAAACACAGCGUCGCAAAGUGGCUGUGGCUAGAGUGCC, the figure is 0.01; as for GGGAGAGCUUAACACAUCGUGGCAAAAUGGCUGUGGCUAGACUGCC, 0.02; as for GGGAGAGCUAAACACAGCGUGGUAAAGUGGGUGUGGGUAGACUCCC, 0.

In the case of GGGAGAGCUCAAGAAAGCGUGGCGAAGUGUCUGUGGCUAGACUUCC, the self-cleavage is 0.1. Consider GGGAGAGCUAAACACAGCGUGGCAAAGUGUCUGUGGCUAGACUGCC, for which the self-cleavage came to 0.03. In the case of GGGACAGCUCAGCACAAUGUGGCAAAGUGGCUGUUGCAAGACUGCC, the self-cleavage was 0.03. The result for GGGAGAGCUCAACACAGUGUGGCAAAGUGGCUGUGGGUAGACUGCU reads 0.03; that for GGGAGAGCUCAACACAGAGUCGCAAAGUGACUGUGGCUAGACUGCC, 0.22; that for GGGAGAGCUCAACACAGCGUGGUAAUGUGGCUGUGGCUAGACUGCC, 0.14. With GGGAGAGCUCAAUACAGCGUGGCAAAGUAGCUGUGGCUGACCUGCC, the self-cleavage was 0.38. The result for GGGAGAGCUCAAGUCAGGCUGGCAAAGUGGCUGUGGCUAGACUGCC reads 0.68; that for GGGAGAGCUCAAGACCGCGUGGCAAGGUGGCUGUGGCUAGCCUGCC, 0.15; that for GGGAGAGCUCAAGACACCGUGGCAAGGUGGCUGUGGCUAGACUGCC, 0.06. Regarding GGGAAAGCUCAACACAGCGUGGCAAAGUGGCUGUGCCUAGACUGCC, the self-cleavage was found to be 0.39. Turning to GGGAAAGCUCAACACAGCGUGGCAAAGUGGCUGUGUCUAGACUGCC, the self-cleavage worked out at 0.18. In the case of GGGAGAGCUCAAAACAGCGUGGCAAAGAGGCUGUGACUAGACUGAG, the self-cleavage was found to be 0.13. As to GGGAGAGCUAAACACAGCGUGGCAAAGUGGCUGUGUCUAGACUUCC, the self-cleavage was 0.01. Turning to GGGAGAGCUCAACAUAGCGUGGAAAAGUUGCUGUGGCUUGACUGUC, the self-cleavage is 0.07. For the variant GGGAGAGCUAAACACAGCGUGGCAAAGUGGCUGUGGUUAGACUGCC, the self-cleavage is 0.11. As for GGGAAAGCUCAACACAGCGUGGCAAAGUGGCUGUGGCCAGACUGGC, the self-cleavage was found to be 0.02. On to GGGAGAGCUUUACGCAGCGUAGCAUAGUGGCUGUGGAUAGACUGCC, for which the self-cleavage came to 0.03.

With GGGAGAGCUCAACACAGCGUGGUAAAGUGGCUGUGGCUGGACUGCC, the self-cleavage amounted to 0.37. Consider GGGAGAGCUGAACACAGCGAGGCAGAGUGGCUGUGCCUAGGCUGAC, for which the self-cleavage was 0. The result for GGGAGAGCUCAAGACACCGUGGCAAUGUGGCUAUGGCUAGACUGCC reads 0.04; that for GGGAGAGCUUAACACAGCGUGGCAAAGUGGCUGUGGCUAGACUGAC, 0.13. As for GGGAGAGCUCAACACAGCGUGGCAAAGUGGAUGUGGCCAUACUGCC, the self-cleavage came out at 0.03.

For GGGAGAGCUCAACACAGCGUGGCAAAGUGGAUGUGGAUAGACUGCC, the self-cleavage came to 0.2. On to GGGAAAGCUCUACACAGCUUGGCCAAGUGGCUGUGGCUAGACUGCC, for which the self-cleavage was found to be 0.01.

In the case of GGGAGAGCUCAAAACAGCGUGGCAGAGGGGCUGUGGCUAGACCGCG, the self-cleavage is 0.04.

For the variant GGGAGAGCUGAACUCAGCGUGGCAAAGUGGCUGUGGCUAGACUGCU, the self-cleavage is 0.03. As for GGGAGAGCUCAAAACAACGUGGCAAAGUAGCUGUGGCUAGACUGCC, the self-cleavage is 0.13.

For the variant GGGAGAGCUCAAUACAGCGUGGCAAAGUGGGUGUGGCUAGACUGCC, the self-cleavage was found to be 0.08. As for GGGAGAGCUGAAAACAAAGUGGCUAGGUGGCAGUGGCCAGACUGCC, the figure is 0.

For the variant GGGAGAGCUGAACACAGCGUGGCAAAGUGGCUGUGGCUAGAGUGCA, the self-cleavage was 0.02.

Turning to GGGAGAGCUCAACACAGCGUGGCAAAGUGGAUGUGGCUGGACUGCC, the self-cleavage came out at 0.03. Consider GGGAGAGCUCAAGACAGCGUAUCAAAGUGGCUGUGGCUAGACUGCC, for which the self-cleavage is 0.03. As for GGGAGAGCUAAACACAGCGUUGCAAAGUGGCUGUGGCUAGACCGAC, the figure is 0.02; as for GGGAGAGCUCAAAAAAGAGUGGCAAAGUGGCUGUGGCAAGACUGCC, 0.07. Turning to GGGAGAGCUAAACACAGCGUGGCAAAGUGGCUAUGGCUAGACUGCC, the self-cleavage came to 0.02. Consider GGGAGAGCUCAACACAGUGUGGCAAAGUGGCUGUGGCGAGACUGCC, for which the self-cleavage was 0.01. As for GGGAGAGCUCAACACAGGGUGCCAAAGUGGCUAUGGCCAGACUGCC, the self-cleavage amounted to 0.04. Regarding GGGAGAGCUCAAAACAGCGUCGCAAAGUGGCUGUGGCUAGACUGAA, the self-cleavage turned out to be 0.07. With GGGAGAGCUCAACACAGCGUGGCAAAGUGGCUGUGGUUAUACAGCC, the self-cleavage is 0.13. With GGGAGAGCUCAACAAAACGUGGCAAAGUGCCUGUGGAUAGACAGCC, the self-cleavage stood at 0.24. For the variant GGGAGAGCUCAACACAGCGUGGCAAAGUGGUUGGGGCUAGACUGCC, the self-cleavage was determined as 0.09.

Turning to GGGAGAGCUCAAGACAGCGUGGCAAAGUUGCUGUGGCUAGACUGUC, the self-cleavage is 0.12. GGGAGAGCUCAAUACAGCGUGGCAAAGUGGCUGUGGCAAGAUUGCC: the self-cleavage came out at 0.36. The result for GGGAGAGCUGAACACAGCGUGGCAAAGUGGGUGUGGCUAGACUGCC reads 0.02; that for GGGAGAGCUAAACACAGCGUGUCAAAGUGGCUGUGGCUAUACUGCC, 0.05; that for GGGAGAGCUUAACACAGCAUGGCAAAGUGGCUGUGGCUAGACUGCC, 0.69. Consider GGGAAAGCUUAACACAGCGAGGCAAAGUGGCUGAGGCUAGACUGCG, for which the self-cleavage amounted to 0.03.
